Variants at the floor of the assay are shown more often than the library holds them.
B1: TPR 5TU (parent)
chain: GGAUCUUCUCGAUCUAACAAAAAAGACAAAUCUGCCACAAAGCUUGAGAGCAUCUUCGGAUGCAGAGGCGGCAGCCUUCGGUGGCGCGAUAGCGCCAACGUUCUCAACUAUGACACGCAAAACGCGUGCUCCGUUGAAUGGAGUUUAUCAUG

Variants of: B1
Experiment: polymerase ribozyme fitness, log enrichment relative to wild type (log ratio); higher = more active; in vitro selection for triplet polymerase activity
Method in brief: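 Both subunits of a heterodimeric triplet polymerase ribozyme were given their own mutant library, built by PCR and transcribed. Each library was annealed with a biotinylated primer, the partner subunit and triplets, incubated frozen at −7 °C, and its extended constructs gel-excised, captured on streptavidin beads and amplified by RT-PCR, all in one round done in triplicate. Fitness is the logarithm of genotype enrichment relative to wild-type enrichment, with replicates averaged by inverse-variance weighting. That logarithm is base 2, and Illumina-sequenced genotypes needed ≥10 input reads and ≥1 read per output.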

Variant	polymerase ribozyme fitness (log ratio)
G83U A97U	≤ -4.2
G84U A115U G143U	≤ -4.2
G81C U135C	-2.22
G83C A113C	-3.35
G83C G92A G126U G128A U139C	≤ -4.2
U82G C93U C149G	≤ -4.2
G84C C123G G128A U145A	≤ -4.2
U77G G84U G86A G94U A97G G128A C132G A137C C149G	≤ -4.2
U78G G86U	≤ -4.2
G84A G86A G88C A113U C114A	≤ -4.2
G84U A91U A107C G136C	≤ -4.2
G81A C87U A97C U101A U104G C116U	-4.01
U77G A91U A97U	≤ -4.2
U77G G92A C103G C105A A107U G124U G143A	≤ -4.2
U77C C85A U102G C114A C125A U127A G136A	≤ -4.2
G81U G94U U104G U130A G136U	≤ -4.2
U82G G84U G133U	≤ -4.2
U77A G86C C96A	≤ -4.2
C79U A89C	-3.38
U77G G94A	≤ -4.2
C79A G84U	≤ -4.2
C79A C85U C96A G143C	≤ -4.2
G81A A120C G133U	≤ -4.2
U82A C85A C93U	≤ -4.2

Variant	polymerase ribozyme fitness (log ratio)
G84A C118U	-0.13
G81U A91C A97C U148A	≤ -4.2
U78C G92U C114A	≤ -4.2
G83C G117A	0.556
C79U C85G	≤ -4.2
G81U G86U A98C C99A A107C U144A	≤ -4.2
U78A G88C U104C	≤ -4.2
C79U C85G C95A	≤ -4.2
C79U A119U G124A G152U	≤ -4.2
G83A U135G G141A	-3.78
G84U C116A	-0.432
U82C C95G U148C	-4.02
G83U C108U	≤ -4.2
G80A C85G	-1.38
C79G C103G C131U U135A G136C A147U	≤ -4.2
G84A U127C	-1.91
G83A C105U A110G U134C	-3.98
G84A C95A U104C	-0.367
C85A A106G U135G A142U	≤ -4.2
G84U C103G	≤ -4.2
C79U C93A C99A G126A G141U	≤ -4.2
U77A G94C A98U	≤ -4.2
C79G G94A U111G	≤ -4.2
G84A U102G A122U	-2.74

Variant	polymerase ribozyme fitness (log ratio)
G83U G84C C99G	≤ -4.2
C85A A120C A121U U130C U151G	≤ -4.2
G80A G84A C116A U135G	≤ -4.2
G81U A91C	≤ -4.2
U77G A113U	≤ -4.2
U77G A91U A107U C149A	≤ -4.2
G84U U148A	≤ -4.2
G84U U148G	≤ -4.2
C79U C87A A98G	≤ -4.2
G83A A89G U109G U130G C132G	≤ -4.2
G83C C95G A97U C132G	≤ -4.2
G83C C87A	≤ -4.2
G80A G92A G94C C105G C108U G143U	≤ -4.2
U77C C85A C99U	≤ -4.2
G81A G92A C108G	≤ -4.2
G83A A150C	-3.77
G84A A107G G141U U148A	≤ -4.2
G81U C87A A107G U144G	≤ -4.2
U77G C103A C105G A120C	≤ -4.2
G81U U82C C95U A120U	-0.64
C79U U134A	-4.05
U82C A107U A115U A120U U145C	≤ -4.2
C79A G92U G100U C131A A137C U148G	≤ -4.2
G84U A97C	≤ -4.2

Variant	polymerase ribozyme fitness (log ratio)
U77A G84U C105U	≤ -4.2
G84U G133U	≤ -4.2
U77G G84A	≤ -4.2
G83U U101A A115U G117U	≤ -4.2
C79A G94A A113G C149U	≤ -4.2
G84C C105A C114U C125U U134C A137U A138C G143U	≤ -4.2
G80A G92U	-3.2
G80A G92C	-0.857
U77G G92U	-3.92
G83U C95U	-1.53
G84A G100A A106G A113U G117U C123U A142C	≤ -4.2
U78G G86A A91G C103G G143U	≤ -4.2
G83U A89U A91G	≤ -4.2
G84A A97U U134A	-3.23
G83A A113U C125A A150U	≤ -4.2
G84U C108A C118U C123A	≤ -4.2
C79U U109G C114U A115G G124C G133C	≤ -4.2
G81A C85G G141U A150G	≤ -4.2
U77C G84C C114A	≤ -4.2
C79G C118U A142C	≤ -4.2
G81C A91G C108G	≤ -4.2
C85A A91U G140C	≤ -4.2
C79A C99U	≤ -4.2
G80A C85U C103G G117U G124U A142G	≤ -4.2

Variant	polymerase ribozyme fitness (log ratio)
C79A G84A A120U U127C U144C	≤ -4.2
G83C U104G C116U	-1.3
U77C G83C	≤ -4.2
G80A C99A U146C U148A G152U	≤ -4.2
U77G C87U U144G	≤ -4.2
G81A C87U	-1.73
G80A C87A A110U A120U A121U	≤ -4.2
G83C C96A A150C	-3.75
G83U C129A	-4.02
G83C A122U U135C	≤ -4.2
C79U A91U C103G U135A	≤ -4.2
G83A C125A	-0.344
G83U A98U C105U	-0.156
C79G U82A C87U C103A	≤ -4.2
C79U G88U A97U G124A	≤ -4.2
G84U A106G U109A A121U C131A G141A U145A	≤ -4.2
U82C A89U C125U A137C	≤ -4.2
G83U A97G A110U G117U	-3.7
U77G C79G G83C	≤ -4.2
U82A G126A G133C	-1.01
G81A A120U G128A	-3.29
G80A C108A G140A	≤ -4.2
G83U C87A C105G A137G	≤ -4.2
G81U C85G A89C C93G	≤ -4.2

Variant	polymerase ribozyme fitness (log ratio)
C79A C87G A113G	≤ -4.2
U78C G84A G136U	-3.14
C85A A89U C105U G133A U134G U145G	≤ -4.2
U78G C85U U104C A107C C149U	≤ -4.2
U78G C99U	≤ -4.2
G84U C93G U134A	≤ -4.2
G81A A91U C105A	≤ -4.2
C79A G83U C85A U127C G141C	≤ -4.2
G80C C85U C108U U109G A150U	≤ -4.2
G84U C95G A122U G152C	-3.55
G84U U90G	≤ -4.2
G83C A97G C108G	≤ -4.2
U82G C93U C131G G140U U146A	≤ -4.2
G80U C114U U144C	-3.95
G83A A115U	-1.25
U78G C99G G117A	≤ -4.2
U78G C96U A107U G141C A150G	≤ -4.2
G84A A91U U102G U144A	≤ -4.2
G83U G100C	≤ -4.2
G84U C118G	≤ -4.2
G84U G86A U90A G100A	≤ -4.2
G83A G94U G128U U145G	≤ -4.2
G80C A138G	≤ -4.2
U82G G141C U151G	≤ -4.2

Variant	polymerase ribozyme fitness (log ratio)
G83C C95A C123G G124U	≤ -4.2
U82A G86A C95A U111A G126A G140C	≤ -4.2
G83U A120C G141A	-0.169
U82G C96A C103U G124A U135G A138U	≤ -4.2
U78G A97G U104A	≤ -4.2
U77G C93U U104G C108U G136C	≤ -4.2
G83U G84U C105G C118U	≤ -4.2
G84A A98G A110G	≤ -4.2
C79G C85G	≤ -4.2
G83U A89G C95U C103G	≤ -4.2
U82A C87G C95U G136C	≤ -4.2
G84A G136U	-2.81
C79G A89C A110G	≤ -4.2
G80C U90G A106C A115G C132A	≤ -4.2
G81C G94A	-0.416
G84U C96A	-2.84
G84C C99A A142C	≤ -4.2
G83U G84A G100A G128A	≤ -4.2
G81C G83U G133A	-3.88
G83A C95G A115U C125A U135A	≤ -4.2
U77C C85G A89G A120C	≤ -4.2
G83A U104G A120G	-1.21
U82G G140A G152A	≤ -4.2

— the RNAGym collection of RNA variant scans (doi:10.1073/pnas.2313332121)
